Experimental data reported in the supplement of paper PMC9446081.
About 220 (0.56%) of roughly 39,000 compounds showed activity. Some of the results follow.

The molecules below were run on Escherichia coli K-12 BW25113 (assay: relative growth (OD600 normalised to plate interquartile mean) (fraction); higher = less growth inhibition, active = 0.2 or less). Conditions: 50 µM; LB; incubation time: overnight (16-24 h).
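Note: static incubation at 37 °C against the wild-type strain, values averaged over two biological replicates.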

Compound | relative growth
CNCc1ccccc1.Cl | inactive: 0.927
C[C@@H]1CCCCO[C@H](CN(C)C(=O)Nc2ccc3c(c2)OCO3)[C@H](C)CN([C@@H](C)CO)C(=O)c2cc(NC(=O)Nc3cccc4ccccc34)ccc2O1 | inactive: 1.01
CN(C)C(=O)CN1CCCN(CCn2nc3ccccn3c2=O)CC1 | inactive: 1.02
C[C@H](CO)N1C[C@H](C)[C@H](CN(C)CC2CCOCC2)Oc2ncc(C#CCc3ccccc3)cc2C1=O | inactive: 1.02
C[C@@H]1CN([C@@H](C)CO)C(=O)c2cc(NC(=O)Nc3ccc(C(F)(F)F)cc3)ccc2O[C@H]1CN(C)Cc1ccc(-c2ccccc2)cc1 | inactive: 1.03
C[C@@H](NC(=O)C[C@H]1C=C[C@H](NC(=O)CN2CCOCC2)[C@@H](CO)O1)c1ccccc1 | inactive: 0.922
Cc1ccc(S(=O)(=O)Nc2ccc3c(c2)C(=O)N([C@@H](C)CO)C[C@@H](C)[C@@H](CN(C)C(=O)Nc2ccc(C(F)(F)F)cc2)OCCCC[C@H](C)O3)cc1 | inactive: 1.02
Cc1ccc(S(=O)(=O)N(C)C[C@@H]2Oc3ccc(NS(=O)(=O)c4ccccc4)cc3CC(=O)N([C@H](C)CO)C[C@@H]2C)cc1 | inactive: 1.01
CC(=O)OC1CCC2(C)C(CC(OC(C)=O)C3(C)C2CCC2(C)C(c4ccoc4)OC(=O)C4OC423)C1(C)C (stereo not drawn) [3beta-ACETOXYDEOXODIHYDROGEDUNIN] | inactive: 1.06
COc1ccc(NC(=O)Nc2ccc3c(c2)C(=O)N([C@@H](C)CO)C[C@H](C)[C@H](CN(C)S(=O)(=O)c2ccccc2)OCCCC[C@@H](C)O3)cc1 | inactive: 1.03
CCCNC(=O)N(C)C[C@H]1Oc2cc(-c3ccc(C)cc3)ccc2S(=O)(=O)N([C@@H](C)CO)C[C@@H]1C | inactive: 0.999
O=C(C[C@@H]1CC[C@H]2[C@@H](COC[C@@H](O)CN2C(=O)Nc2ccc(Cl)cc2)O1)NCCc1ccncc1 | inactive: 0.959
OCc1ccc2c(c1)OCCO2 | inactive: 1
COc1ccc(CNS(=O)(=O)N(C)C)cc1 | inactive: 1.01
COc1ccc(CN(C)C[C@@H]2OCCCC[C@@H](C)Oc3ccc(NC(=O)Cc4ccccc4)cc3C(=O)N([C@H](C)CO)C[C@@H]2C)cc1 | inactive: 0.991
CO[C@H](C(=O)[C@@H](O)[C@@H](C)O)[C@H]1Cc2cc3cc(O[C@H]4C[C@@H](O[C@H]5C[C@@H](O)[C@@H](O)[C@@H](C)O5)[C@@H](O)[C@@H](C)O4)c(C)c(O)c3c(O)c2C(=O)[C@@H]1O[C@H]1C[C@@H](O[C@H]2C[C@@H](O[C@H]3C[C@@](C)(O)[C@@H](O)[C@@H](C)O3)[C@@H](O)[C@@H](C)O2)[C@@H](O)[C@@H](C)O1 | inactive: 1.03
Cc1noc(C)c1S(=O)(=O)N(C)C[C@H]1OCc2cn(nn2)CCCC(=O)N([C@H](C)CO)C[C@@H]1C | inactive: 1.02
C[C@H]1CN([C@@H](C)CO)C(=O)c2cccc(NS(C)(=O)=O)c2O[C@H]1CN(C)S(=O)(=O)c1ccc(Cl)cc1 | inactive: 0.981
CN(C)C(=O)C[C@H]1CC[C@H]2[C@H](COc3ccc(NS(=O)(=O)c4cccc(F)c4)cc3C(=O)N2C)O1 | inactive: 0.989

Compound | relative growth
C[C@@H]1CN([C@@H](C)CO)C(=O)Cc2cc(NS(=O)(=O)c3ccc(Cl)cc3)ccc2O[C@H]1CN(C)Cc1ccc(Cl)c(Cl)c1 | inactive: 0.965
C[C@@H]1CN([C@@H](C)CO)S(=O)(=O)c2ccc(C#CCN(C)C)cc2O[C@H]1CN(C)Cc1ccncc1 | inactive: 1.01
NC(=O)c1ccnc(N2CCN(C(=O)C3CCOCC3)C[C@@H](O)C2)c1 | inactive: 0.953
C[C@H]1CN([C@@H](C)CO)C(=O)c2cccc(NS(=O)(=O)c3ccccc3)c2O[C@H]1CN(C)Cc1ccc(Oc2ccccc2)cc1 | inactive: 0.968
C[C@H]1CN([C@@H](C)CO)C(=O)c2cccc(NC(=O)Nc3ccc(C(F)(F)F)cc3)c2O[C@H]1CN(C)Cc1ccc(-c2ccccc2)cc1 | inactive: 0.954
CC[C@@H](C)[C@@H](NC)C(=O)O | inactive: 0.973
C[C@@H]1S[C@H](C)C(=O)NC1=O | inactive: 1
Cc1noc(C)c1S(=O)(=O)N(C)C[C@@H]1OCCCC[C@@H](C)Oc2ccc(NC(=O)Nc3ccc(F)cc3)cc2C(=O)N([C@@H](C)CO)C[C@@H]1C | inactive: 1.01
CC(=O)OC1CCC2(C)C(CCC3(C)C2CC=C2C4CC(C)(C)CCC4(C)CCC23C)C1(C)C (stereo not drawn) [beta-AMYRIN ACETATE] | inactive: 1.16
C[C@@H]1CN([C@@H](C)CO)C(=O)CCCn2nncc2CO[C@H]1CN(C)Cc1ccc2c(c1)OCCN2C | inactive: 0.98
C[C@@H]1CCCCO[C@H](CN(C)Cc2ccc(C(=O)O)cc2)[C@@H](C)CN([C@@H](C)CO)C(=O)c2cc(NS(=O)(=O)c3ccccc3)ccc2O1 | inactive: 0.973
N[C@@H](Cc1ccc(F)cc1)C(=O)O | inactive: 0.998
C[C@@H]1CN([C@@H](C)CO)C(=O)c2cc(NC(=O)c3ccccc3)ccc2O[C@@H](C)CCCCO[C@H]1CN(C)C(=O)C1CCCCC1 | inactive: 0.992
C[C@@H]1CCCCO[C@H](CN(C)C(=O)Nc2ccc3c(c2)OCO3)[C@H](C)CN([C@@H](C)CO)C(=O)c2cc(NC(=O)NC3CCCCC3)ccc2O1 | inactive: 1.01
C[C@@H]1CCCCO[C@H](CN(C)Cc2ccncc2)[C@@H](C)CN([C@@H](C)CO)C(=O)c2cc(NC(=O)CCC(F)(F)F)ccc2O1 | inactive: 0.998
C[C@@H]1CN([C@H](C)CO)C(=O)c2cc(NS(=O)(=O)c3cccs3)ccc2O[C@@H](C)CCCCO[C@@H]1CN(C)Cc1ccccc1 | inactive: 0.987
C[C@H](CO)N1C[C@H](C)[C@@H](CN(C)S(C)(=O)=O)Oc2cc(C#CCN(C)C)ccc2S1(=O)=O | inactive: 0.999
COC(=O)c1c2oc(c1C(=O)OC)C(=O)N[C@@H](Cc1ccccc1)Cn1cc(nn1)CNC(=O)[C@@H](Cc1ccccc1)NC(=O)N[C@@H](CO)CC2 | inactive: 1.02
